Over roughly 33,000 sequences, “E-score (-0.5 to 0.5)” has its median near -0.054; the highest 2% begin near 0.35. The list shows a part of the results.
What follows are sequences tested against T1, Stb5 (UniProt P38699) (assay: PBM E-score (8-mer binding enrichment) (E-score (-0.5 to 0.5)); higher = stronger / more preferred TF binding; most listed sequences are background and not binding sites). Conditions: protein concentration: 200 nM; construct: GST-full length.
T1 sequence: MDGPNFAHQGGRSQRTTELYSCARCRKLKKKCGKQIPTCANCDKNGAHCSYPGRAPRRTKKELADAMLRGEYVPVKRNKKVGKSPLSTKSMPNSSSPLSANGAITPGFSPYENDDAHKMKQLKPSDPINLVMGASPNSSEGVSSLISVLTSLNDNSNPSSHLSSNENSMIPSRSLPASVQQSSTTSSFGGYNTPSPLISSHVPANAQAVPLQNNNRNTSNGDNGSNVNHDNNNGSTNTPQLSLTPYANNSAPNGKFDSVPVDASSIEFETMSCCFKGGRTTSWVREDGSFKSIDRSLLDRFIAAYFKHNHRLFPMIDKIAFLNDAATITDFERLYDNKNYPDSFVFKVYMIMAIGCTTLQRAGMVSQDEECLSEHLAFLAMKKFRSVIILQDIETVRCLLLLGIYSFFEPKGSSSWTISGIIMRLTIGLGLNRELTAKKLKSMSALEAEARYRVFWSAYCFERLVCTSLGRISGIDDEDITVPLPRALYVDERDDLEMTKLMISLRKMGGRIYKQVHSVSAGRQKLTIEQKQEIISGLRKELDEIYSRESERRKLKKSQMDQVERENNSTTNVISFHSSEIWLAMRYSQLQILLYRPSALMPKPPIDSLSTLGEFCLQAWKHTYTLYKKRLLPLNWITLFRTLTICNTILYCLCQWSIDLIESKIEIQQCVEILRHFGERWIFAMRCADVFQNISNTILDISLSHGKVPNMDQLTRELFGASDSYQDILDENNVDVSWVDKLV
Protocol: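 Universal 'all 10-mer' protein binding microarrays (Agilent AMADID 015681) probed with GST-tagged S. cerevisiae TFs (full-length or DBD) made by in vitro transcription/translation (PURExpress), about 100-200 nM. Bound TF was detected with fluorescent anti-GST. Each ungapped 8-mer (which stands for itself and its reverse complement) is scored by the PBM enrichment score (E-score), a modified Wilcoxon-Mann-Whitney statistic from -0.5 to +0.5, computed with the Universal PBM Analysis Suite. Scale: above 0.35 generally sequence-specific binding.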

| Sequence | PBM E-score |
| --- | --- |
| CACGTTTC | -0.0643 |
| ATCACTGG | -0.108 |
| ATCTTGCG | 0.0845 |
| GGACACAA | 0.194 |
| CAGTCGCG | -0.0282 |
| CCTACCAC | 0.0506 |
| ATAGCGGG | 0.292 |
| CATCATAG | -0.0501 |
| CTTTACGA | -0.0748 |
| CGGTACCA | 0.39 |
| ATATTAAA | 0.245 |
| TGTTAAAA | 0.0983 |
| CCTGAAGC | -0.194 |
| AAAAAGGA | -0.0433 |
| AAGTCCTG | 0.0166 |
| TAAGGTGA | -0.00836 |
| ACGCAGGC | 0.0335 |
| CGAAGTAG | 0.00691 |
| CCTAGGCA | -0.129 |
| CAGTAAAC | -0.00851 |
| ACGTTAGC | -0.0627 |
| ATGTACTG | -0.172 |
| ACGGCTCC | 0.062 |
| CTCAGGTA | -0.183 |
| GAGGCCTC | -0.328 |

| Sequence | PBM E-score |
| --- | --- |
| ACAACGAC | 0.0269 |
| ATTAATAC | 0.0798 |
| CCTTACTC | 0.0597 |
| GCGGTGGA | 0.177 |
| AGGCGGAT | 0.0922 |
| CACTTCTC | -0.177 |
| ATTGCGAC | 0.0428 |
| CTCCCGAG | -0.213 |
| CGGCTGAG | -0.172 |
| AGCTTATC | -0.0438 |
| CGAGTGCA | -0.00695 |
| CTCGTAAG | 0.0212 |
| GCATGTAC | 0.0506 |
| GGTGAGCA | -0.097 |
| CATAGCAA | -0.146 |
| GAAGTCGA | -0.259 |
| AACTGTTG | -0.29 |
| GATTCCCC | 0.0389 |
| ATGGTTTG | -0.0136 |
| ATAGCAGA | -0.0949 |
| AAGCCGCA | 0.147 |
| GCTCTCAA | -0.239 |
| AGCCAAGC | -0.198 |
| CTGGTACA | -0.194 |
| GGGGACTA | -0.0234 |

| Sequence | PBM E-score |
| --- | --- |
| GAAAGGCC | 0.348 |
| GGGAACCA | -0.172 |
| CAAAACAG | -0.0698 |
| AGTAAAGA | 0.143 |
| AATTTATC | 0.167 |
| ACCTGGAC | -0.216 |
| CTAGATAC | 0.0359 |
| AATCGGAG | 0.263 |
| AAAACTAT | 0.047 |
| CAAGACAA | -0.112 |
| GGGTGCCA | -0.012 |
| TGCTCCCA | -0.298 |
| AGCCACCG | 0.265 |
| CTAGGTCC | 0.2 |
| GCGACAGA | 0.0503 |
| GAACACCC | 0.0757 |
| CTACAAAA | -0.0352 |
| AATCTTTG | -0.297 |
| GCAGCTGA | -0.0273 |
| TTGTACAA | -0.314 |
| AGGTAAAA | 0.137 |
| GTCCACAC | 0.162 |
| CTGGAATA | -0.0237 |
| ACTGAGTA | -0.294 |
| GATATATC | 0.307 |

| Sequence | PBM E-score |
| --- | --- |
| AAGACCAG | -0.107 |
| AACTACGC | 0.124 |
| CGTTTAGA | 0.0366 |
| GAGCGCCA | 0.108 |
| ATAGCCGC | 0.312 |
| CGTCGACC | 0.00836 |
| ACTCCATA | -0.00832 |
| ACGGCGCG | 0.186 |
| CACCGCAG | 0.344 |
| GTAGCAAC | -0.113 |
| CACGTTGG | -0.29 |
| AACAGGCA | -0.186 |
| CTTACACA | -0.124 |
| GTCACCCA | -0.0904 |
| ACATTTCA | -0.095 |
| AATCCCGA | 0.394 |
| ATAATGCA | 0.0012 |
| ATAGTTCA | 0.00051 |
| GCCGGAAC | 0.266 |
| ACACCCGG | 0.234 |
| AGTTGCAT | -0.0338 |
| CGTGGAAA | 0.0968 |
| ACAGCAAA | -0.0535 |
| CTTGCTCA | -0.194 |
| ACATACAT | -0.0182 |

| Sequence | PBM E-score |
| --- | --- |
| AATATGGG | -0.244 |
| CGCAGCAC | 0.0723 |
| AGAGCATA | -0.0737 |
| GCTCGGAC | 0.242 |
| ATTCTTGC | 0.0606 |
| CGTCTGCC | 0.178 |
| AGGAAAAA | -0.215 |
| GCCGCAAA | 0.182 |
| TATTAGAA | -0.136 |
| ACCCTAAA | -0.0556 |
| GCAGGTAC | -0.0218 |
| ACCATGGG | -0.119 |
| GTATACTA | -0.0132 |
| CCCATGGG | -0.194 |
| AGAAGCAT | -0.0965 |
| CGTAATGC | 0.178 |
| TCAAGAAA | 0.0175 |
| AATACCTA | -0.168 |
| AAAGCGAT | -0.0748 |
| CGCTACAG | 0.0486 |
| ATGCTACC | 0.107 |
| CACCAAGG | 0.0902 |
| GAGAAAAA | 0.213 |
| TCCGGTAA | 0.266 |
| ATTCGATA | 0.0602 |

| Sequence | PBM E-score |
| --- | --- |
| GGAAAAAA | 0.141 |
| CAAGACGC | 0.0349 |
| ACGATCTC | -0.0682 |
| ATATCGAA | 0.0274 |
| AAGAAAAC | 0.0499 |
| ATACGGAC | 0.247 |
| CTATGTCC | 0.232 |
| CCTGGTTC | -0.0702 |
| AAGGTTCT | -0.142 |
| CGCGAATA | 0.0339 |
| CAGACGTC | -0.0297 |
| CAGAAATC | -0.12 |
| ACCCACAG | -0.204 |
| CGATTTTA | 0.181 |
| CCGTGAAC | 0.0346 |
| AGAAAATC | 0.0227 |
| AGATCGAT | -0.317 |
| ACGATTTC | -0.0531 |
| CAGCGGGA | 0.264 |
| ATCAAGTC | -0.0649 |
| AGTCTCTG | -0.249 |
| ACACACCG | 0.372 |
| ACTTTTGC | -0.163 |
| GTACCTAC | -0.125 |
| CTCACCGA | 0.248 |

| Sequence | PBM E-score |
| --- | --- |
| ACCTGTTA | -0.171 |
| AGACTAGC | -0.395 |
| CTAGCGTA | 0.0784 |
| AAGTTGCT | -0.227 |
| CGCACTGA | 0.0114 |
| ACAGGACA | -0.0122 |
| ACCCGCCG | 0.318 |
| GCTAAGGA | -0.245 |
| TACGAATA | -0.152 |
| CGACAGCG | 0.254 |
| ACACCCAA | -0.1 |
| AGTATCGA | -0.0858 |
| GGACACTA | 0.0456 |
| AGGCATTG | -0.0462 |
| AATCGAGC | -0.152 |
| CTGACGGA | 0.198 |
| ACACCAAG | -0.187 |
| CCAAGGGA | -0.228 |
| CCGCGTAC | 0.129 |
| AACTTCTG | -0.109 |
| ACCGACGC | 0.306 |
| CCTTCACA | -0.239 |
